The values that follow come from paper PMC4336329 (PLoS ONE, 2015).

Among all 310,000 compounds or so, about 2,200 (0.71%) showed an effect of 50% or more. The effect is printed as a negative number. The list shows a part of the results.

The target in the test is human ether-à-go-go-related gene (hERG) potassium channel (human, UniProt Q12809). In words: primary screen, population patch clamp on CHO cells stably expressing hERG.
Sequence of human ether-à-go-go-related gene (hERG) potassium channel (Q12809 whole entry, looked up): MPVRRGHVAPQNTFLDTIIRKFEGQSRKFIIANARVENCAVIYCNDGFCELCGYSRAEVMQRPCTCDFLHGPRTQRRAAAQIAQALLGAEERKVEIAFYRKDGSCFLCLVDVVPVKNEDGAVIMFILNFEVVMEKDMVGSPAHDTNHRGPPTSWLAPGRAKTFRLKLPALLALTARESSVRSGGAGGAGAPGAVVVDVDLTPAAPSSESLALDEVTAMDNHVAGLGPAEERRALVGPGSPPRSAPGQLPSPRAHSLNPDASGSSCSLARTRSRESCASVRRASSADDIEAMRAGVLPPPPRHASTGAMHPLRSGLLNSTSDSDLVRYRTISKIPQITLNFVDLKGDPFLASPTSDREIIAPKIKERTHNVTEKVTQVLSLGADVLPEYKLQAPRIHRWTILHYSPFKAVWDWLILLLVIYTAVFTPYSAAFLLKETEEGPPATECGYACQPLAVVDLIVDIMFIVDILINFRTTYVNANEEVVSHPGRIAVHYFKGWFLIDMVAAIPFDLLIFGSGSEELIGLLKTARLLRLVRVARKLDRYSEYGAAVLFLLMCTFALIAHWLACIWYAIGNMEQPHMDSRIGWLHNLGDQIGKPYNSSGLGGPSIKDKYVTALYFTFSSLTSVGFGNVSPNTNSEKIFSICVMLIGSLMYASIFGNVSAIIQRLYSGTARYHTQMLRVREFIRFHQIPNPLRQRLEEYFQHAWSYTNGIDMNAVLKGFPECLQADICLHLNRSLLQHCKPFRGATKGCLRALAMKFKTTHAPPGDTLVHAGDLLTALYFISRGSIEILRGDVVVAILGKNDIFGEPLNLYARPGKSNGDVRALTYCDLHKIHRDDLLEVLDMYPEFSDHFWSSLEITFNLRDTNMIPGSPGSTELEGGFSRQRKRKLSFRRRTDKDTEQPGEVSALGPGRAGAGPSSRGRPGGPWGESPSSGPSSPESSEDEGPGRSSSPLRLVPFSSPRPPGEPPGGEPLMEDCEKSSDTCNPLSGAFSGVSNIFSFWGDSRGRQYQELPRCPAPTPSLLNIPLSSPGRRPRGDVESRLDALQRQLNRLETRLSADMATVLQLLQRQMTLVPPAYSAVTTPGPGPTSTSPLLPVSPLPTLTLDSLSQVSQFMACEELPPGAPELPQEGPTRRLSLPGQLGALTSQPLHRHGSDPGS
Regarding `O=C(O)C(=O)O.OC(CNC1CCCCCCC1)c1ccccc1` (stereo not shown), the “hERG current change (%, negative = inhibition) at 1uM” value was 10.4%. To `CCOc1ccc(CCNC(=O)C2CCN(c3nn4c(=O)cc(C)nc4s3)CC2)cc1` belongs -4.93%.

For the compound `O=C(Nc1ccc(N2CCCC2)cc1)c1cccc(-c2cc3ccccc3oc2=O)c1`, the “hERG current change (%, negative = inhibition) at 1uM” value was 20%. The result for `COc1cc(/C=N/NC(=O)CNS(=O)(=O)c2ccc(C)cc2)cc(OC)c1OC` reads 11.7%; that for `COc1ccc(-c2c(C(C)=O)c(C)nc3sc4c(=N)n(N)cnc4c23)cc1`, 10.8%.

Regarding `Cc1c(Cl)c([N+](=O)[O-])nn1CC(=O)NC(C)c1ccccc1` (stereo not shown), the “hERG current change (%, negative = inhibition) at 1uM” value stood at 12.2%.

In the case of `CCc1nnc(NC(=O)CCC(=O)N2CCN(Cc3ccc(Cl)cc3)CC2)s1`, the “hERG current change (%, negative = inhibition) at 1uM” value was -5.62%. For `O=C(N/N=C/C=C\c1ccccc1[N+](=O)[O-])c1ccncc1`, the “hERG current change (%, negative = inhibition) at 1uM” value was determined as 10.5%. For the compound `COC(=O)c1ccc(C(c2c(N)n(CC(C)C)c(=O)[nH]c2=O)N2CCN(c3ccccc3)CC2)cc1` (stereo not shown), the “hERG current change (%, negative = inhibition) at 1uM” value is reported as 6.67%.

For `Cc1cccnc1CN1CCN(Cc2nc(C(c3ccccc3)c3ccccc3)no2)CC1`, the “hERG current change (%, negative = inhibition) at 1uM” value is listed as -26.5%.

Consider `CCOc1ccc2nc(NC(=O)C3CCCN(S(=O)(=O)c4cccs4)C3)sc2c1` (stereo not shown), for which the “hERG current change (%, negative = inhibition) at 1uM” value was 5.49%. Consider `Cc1ccc2nc3ccc(N4CCCC4)nn3c(=O)c2c1`, for which the “hERG current change (%, negative = inhibition) at 1uM” value is 7.78%. As for `O=S(=O)(c1ccc2oc3ccccc3c2c1)N1CCOCC1`, the “hERG current change (%, negative = inhibition) at 1uM” value was -3.92%. With `COc1ccc(OCC(=O)Nc2ccc3oc(-c4ccncc4)nc3c2)cc1`, the “hERG current change (%, negative = inhibition) at 1uM” value was determined as 8.04%. To `O=C(Nc1ccccc1-c1nc2ccccc2s1)c1ccco1` belongs -0.434%; to `Cc1cc(NC(=O)COC(=O)CCC(=O)c2ccc(F)cc2)no1`, 11.5%. Turning to `COc1ccccc1NC(=O)c1ccc(-n2cccn2)c([N+](=O)[O-])c1`, the “hERG current change (%, negative = inhibition) at 1uM” value was determined as 3.64%. The result for `COc1cccc(C(=O)Nc2nnc(S(=O)(=O)Nc3cccc(C)c3)s2)c1` reads 2.89%. In the case of `COc1cc(C2C(C(=O)c3ccco3)=C(O)C(=O)N2Cc2cccnc2)cc(OC)c1OC` (stereo not shown), the “hERG current change (%, negative = inhibition) at 1uM” value turned out to be 13.8%. To `COCCNC(=S)N1CCc2cc(OC)c(OC)cc2C1COc1ccc(C(C)C)cc1` (stereo not shown) belongs 13.4%. On to `CC(C)(C)CC(=O)Nc1ccc(C(N)=O)cc1`, for which the “hERG current change (%, negative = inhibition) at 1uM” value was found to be 5.78%. The result for `O=C(CSc1nc2c(c(C(F)(F)F)n1)CCc1ccccc1-2)NCc1ccco1` reads 11.7%; that for `COc1ccc(C2/C=C\CN(C(=O)CC(C)(C)C)CC(=O)N2Cc2ccc(F)cc2)cc1` (stereo not shown), 12.8%.

With `Cc1cccc(N(CC(=O)NCc2ccccc2)C(=O)CCC(=O)Nc2nccs2)c1`, the “hERG current change (%, negative = inhibition) at 1uM” value was determined as 13.8%. For the compound `CCn1c2ccccc2n2c(=O)c(=O)n(CC(=O)N3CCN(c4ccccc4OC)CC3)nc12`, the “hERG current change (%, negative = inhibition) at 1uM” value is reported as 18.1%.

As for `Brc1ccc(CN2CCN(c3ccccc3)CC2)o1`, the “hERG current change (%, negative = inhibition) at 1uM” value came out at 14.6%. With `COc1cc(/C=N/O)ccc1OCc1ccc(C(=O)O)cc1`, the “hERG current change (%, negative = inhibition) at 1uM” value was 3.39%. In the case of `COc1ccc(Cl)cc1S(=O)(=O)N1CCC(C(=O)NCc2ccco2)CC1`, the “hERG current change (%, negative = inhibition) at 1uM” value is reported as -1.02%.

Consider `Cc1cccc(N(C(=O)CNC(=O)c2ccco2)C(C(=O)NC2CCCC2)c2ccncc2)c1C` (stereo not shown), for which the “hERG current change (%, negative = inhibition) at 1uM” value stood at 10.5%. As to `C/C(=N\OC(=O)c1ccc(Cl)c(Cl)c1)c1sc(C)nc1C`, the “hERG current change (%, negative = inhibition) at 1uM” value is -1.44%. On to `Cc1nc2c(C)cccn2c1/C(O)=C1\C(=O)C(=O)N(CCN(C)C)C1c1ccco1` (stereo not shown), for which the “hERG current change (%, negative = inhibition) at 1uM” value was determined as 11.2%. Take `CCOC(=O)c1c(-c2ccccc2)nnn1-c1nc(OCC)nc(N2CCCCC2)n1`: the “hERG current change (%, negative = inhibition) at 1uM” value worked out at 7.47%. As for `Cc1ccccc1C(=O)NN1C(=O)CSC1=S`, the “hERG current change (%, negative = inhibition) at 1uM” value is listed as 15.5%. On to `CN(C)C(CNC(=O)Cc1ccc([N+](=O)[O-])cc1)c1ccccc1` (stereo not shown), for which the “hERG current change (%, negative = inhibition) at 1uM” value amounted to 4.08%. The result for `COc1ccc(NC(=O)CSc2nnc3ccc(-c4ccccn4)nn23)cc1` reads 16.8%; that for `CCOc1ccc(S(=O)(=O)N2CCN(CC(O)COc3cccc([N+](=O)[O-])c3)CC2)cc1` (stereo not shown), -36.4%. The result for `COC(=O)c1cc(NS(=O)(=O)c2ccc3c(c2)CCC(=O)N3)cc(C(=O)OC)c1` reads 12.5%; that for `N#CCC(=O)N1CCN(C(c2ccccc2)c2ccccc2)CC1`, 9.67%; that for `CNc1nc(Oc2ccccc2C(=O)OC)nc(SC)n1`, 3.5%.

Turning to `Cc1ccc(OCC(=O)Nn2c(C)nc3ccccc3c2=O)c(C(C)C)c1`, the “hERG current change (%, negative = inhibition) at 1uM” value is -2.35%. The result for `NS(=O)(=O)c1ccc(CCNC(=O)c2ccc3ccccc3n2)cc1` reads 4.48%; that for `CC(=O)N1CCc2c(sc(NC(=O)C3CCCN3S(=O)(=O)c3cccs3)c2C#N)C1` (stereo not shown), 7.46%; that for `COC(=O)C1=C(O)/C(=C\c2ccc(O)c(OC)c2)N=C1C`, -1.12%. For the compound `Cn1c(=O)c2c(nc(CN3CCN(c4cccc(Cl)c4)CC3)n2CCc2ccccc2)n(C)c1=O`, the “hERG current change (%, negative = inhibition) at 1uM” value was 5.57%.

`CC(C)(C)C(=O)N1CCN(c2nc3ccc(Cl)cc3s2)CC1`: the “hERG current change (%, negative = inhibition) at 1uM” value is 8.73%.

`CC12CCC(C(=O)Nc3ccccc3Cl)(C(Br)C1=O)C2(C)C` (stereo not shown): the “hERG current change (%, negative = inhibition) at 1uM” value was determined as 10%.

Regarding `O=C(NCc1ccccn1)C1CCC(=O)N1C1CCCC1` (stereo not shown), the “hERG current change (%, negative = inhibition) at 1uM” value is reported as 5.12%. The result for `CC[C@H]1CN(C)C[C@@]2(C(=O)OC)Cc3c([nH]c4ccccc34)C(=O)C[C@@H]12` reads 10.5%. The result for `CCOc1ccccc1N1CSC2=C(C#N)C(c3c(OC)ccc4ccccc34)CC(=O)N2C1` (stereo not shown) reads 18.2%; that for `CCCCc1ccc(-n2nnnc2SCC(=O)Nc2cc(OC)c([N+](=O)[O-])cc2C)cc1`, 12.1%.

Consider `CC1(C)C(=O)CC[C@]2(C)C3C(=O)C=C4[C@H]5C[C@@](C)(C(=O)O)CC[C@]5(C)CC[C@]4(C)[C@]3(C)CC[C@@H]12` (stereo partly shown), for which the “hERG current change (%, negative = inhibition) at 1uM” value was 18.2%. For the compound `Cc1ccc(S(=O)(=O)c2cn(C)c3cc(N4CCOCC4)c(F)cc3c2=O)cc1`, the “hERG current change (%, negative = inhibition) at 1uM” value was 2.45%.
